The supplement of paper PMC3334620
The full ranking holds about 33,000 sequences; the median of “E-score (-0.5 to 0.5)” is about -0.01, and the highest 2% start at about 0.26. Some of the results follow.

Target: Ste12 (UniProt P13574)
Test: PBM E-score (8-mer binding enrichment) (E-score (-0.5 to 0.5)); higher = stronger / more preferred TF binding; most listed sequences are background and not binding sites
Conditions: protein concentration: 200 nM; construct: GST-DNA-binding domain
Outline: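 Detection of bound protein used fluorescent anti-GST, with scans normalised by masliner. The proteins were GST-tagged yeast transcription factors applied at about 100-200 nM to universal all-10-mer Agilent arrays made double-stranded by primer extension. Each ungapped eight-base word, pooled with its reverse complement, was scored with an E-score from the Universal PBM Analysis Suite.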

Sequence	PBM E-score
CTGCCCTC	-0.211
GTACCCAA	0.036
CACATCTA	0.0333
AATGTCCC	0.159
AGACCGGC	-0.191
AAGCTGGC	-0.151
CAGGGAAA	0.0887
AATCCGAA	0.0364
GCATTTCA	0.0979
GATATGGA	0.235
AGGTTCGG	-0.116
AGGCGACA	-0.116
ATACATTA	0.164
ATCCGTGG	-0.107
ACTGGCTC	-0.277
AATCAACG	-0.0774
ACGTTCGC	-0.113
AGAACGGC	-0.037
CCATGAAC	-0.0453
TATGGACA	-0.00254
ACTCAATC	0.102
TAGTTAGA	0.0557
AGTTGCAC	-0.0926
ATGTTAGC	-0.184
AGTCGTGC	-0.133

Sequence	PBM E-score
AGGTCCCC	-0.176
CAGGTGCG	0.077
CTATCCGA	0.107
CAGACTGG	-0.158
CCACATCC	-0.0536
TCCTATAA	0.0336
CAATAATG	0.0505
TGAAGAAA	0.109
GAAGACAA	-0.0264
GCCTAGAA	0.00109
GATTCAGC	-0.0879
CCAAATCC	-0.177
ACATTTCC	0.0947
GCGAGGGA	0.0452
ACATGTTG	0.148
CACTTCGA	0.0384
CTACAGGC	-0.165
ATAGCGTC	0.0538
GCCACGCC	-0.186
GTCGAAAC	0.128
ATGAACGC	0.0625
GGTTGTAC	-0.219
CAAAAATA	0.346
GAATACTA	0.236
ATAGGTTA	0.0715

Sequence	PBM E-score
GACGTTCC	-0.231
AGTAGACT	-0.217
AACACCTT	0.0484
TAGCCACA	-0.105
TCTTCCAA	0.0347
GACGAGGC	-0.122
CCTAAATC	-0.0187
CATAAAAA	0.175
GGATTCAA	0.0399
CAGCATAA	0.139
AAACATCG	0.233
AATTCTAA	0.242
CTTGTTGA	0.00531
ACATTGCT	-0.0537
TGGGGAAA	0.098
CGGTCCTA	-0.0839
TACTAACA	0.193
CGGCGGCC	-0.0459
CATTGTGC	-0.152
CAGGGCAG	-0.0739
AGTATTCG	0.0217
CAAAGTTC	-0.0947
CTTATTAA	0.213
AATCGGCT	0.189
GCCCATCC	-0.165

Sequence	PBM E-score
ACATTCTC	0.0558
ACCCAGAC	-0.0262
ACACCGCG	-0.0298
CCTGTGAG	-0.119
CCTTATCA	0.0945
GAACCGGC	-0.0332
GGTACACA	-0.122
CACAGATG	-0.205
CTAGGTTC	-0.0289
CGTGCGGA	-0.0676
AATCCGTG	-0.0695
CAGGAGAA	0.0114
GAAAAAGA	0.241
GCAAAAAA	0.258
ATTCCGGA	0.11
GTTTTCTA	0.0606
ATAATCCG	-0.0219
GCCCTGTA	-0.117
AGTACTTC	0.0465
ATCTGTGG	-0.106
GCAGCAGA	-0.0506
GCGTTACA	0.139
ATTTCATC	0.202
GCGCGGGA	0.0251
GCGCCACC	-0.0104

Sequence	PBM E-score
AGAACCAG	-0.013
GGTTCAAA	0.195
ATTAAGTG	0.127
CGCACCAG	0.175
CGTATCCC	-0.0743
CAGGAATC	0.142
TATAATGA	0.225
AGGCGAAG	-0.178
CCGCCCAA	-0.0838
ATTTGCAG	0.108
GCGTTCCA	-0.00659
CAGACGCC	-0.0831
CCTTTCAC	0.0433
ATTGGCCG	-0.0265
TACAGGAA	0.0897
CTACCTTA	-0.00289
ATGATTCG	0.115
GAGTTCTA	-0.0483
AGCGTGAT	-0.154
GTACGTCA	-0.253
GCATATTA	-0.0187
GCGTTTCC	0.0828
AGTCGTAG	-0.212
CAACGCTC	-0.118
CAGAGGAG	-0.212

Sequence	PBM E-score
CCTTGGCC	-0.277
ACGAACAG	-0.0895
GCCAAAAA	0.22
ATAAACAC	0.121
CGCCGATC	0.0606
TGGGACAA	0.0495
GACCGCAA	-0.00213
GCGGTTCA	-0.0271
GCAACCTA	0.0415
CCCCCAAG	-0.0992
AGCCGAAC	-0.0882
CCAGCACG	-0.134
ACATTCCT	-0.0262
CATCTCTA	0.0174
AAGAACCG	0.0583
CTCAGGAC	-0.0637
AACTACAT	0.0317
ACTTCTAT	-0.0238
CCTCCAGG	-0.116
CACAAACC	0.0105
ATGCACGA	-0.0159
ATAATTAA	0.276
AGCATCAC	-0.164
ACAAGTGT	-0.139
GAGCTCCA	-0.0868

Sequence	PBM E-score
ACATGGAG	-0.15
AAGACATT	-0.135
GATCGGTA	0.00632
GCATGAAA	0.318
CGCCCTGA	-0.14
CTGGTATC	-0.136
ACGATCTG	-0.159
AGCAGGGC	-0.0944
GCACCGCC	-0.083
CCTGAGCA	0.0288
ACTACCAC	0.0487
AGAAATCC	0.00799
AGGGATTA	0.059
AATCCGTC	0.113
CGAAGAAG	-0.0919
ACCCAAGC	-0.181
GAACGGGA	-0.22
CCTTGGAA	-0.0213
GTGGCGGA	-0.0445
AGGATACA	-0.195
AAACTCTT	0.0318
GACAAGGA	-0.0166
